# In all, about 33,000 sequences were measured (“E-score (-0.5 to 0.5)”: median about -0.013, highest 2% from about 0.3 on). The list shows a part of the results.
# Biological target: T1, Msn1 (UniProt P22148)
# T1 sequence: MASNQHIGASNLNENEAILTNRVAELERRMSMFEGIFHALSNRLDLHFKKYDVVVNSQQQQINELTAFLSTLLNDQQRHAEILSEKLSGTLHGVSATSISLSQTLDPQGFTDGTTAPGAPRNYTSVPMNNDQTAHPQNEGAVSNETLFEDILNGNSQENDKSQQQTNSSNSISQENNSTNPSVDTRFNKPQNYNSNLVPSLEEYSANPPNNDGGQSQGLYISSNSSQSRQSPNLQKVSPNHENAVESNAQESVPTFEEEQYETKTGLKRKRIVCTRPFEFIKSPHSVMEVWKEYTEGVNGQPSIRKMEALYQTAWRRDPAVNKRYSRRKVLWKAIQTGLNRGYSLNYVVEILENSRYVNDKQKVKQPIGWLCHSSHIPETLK
# Assay: PBM E-score (8-mer binding enrichment) (E-score (-0.5 to 0.5)); higher = stronger / more preferred TF binding; most listed sequences are background and not binding sites
# Conditions: protein concentration: 200 nM; construct: GST-full length
# Outline: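 Masliner-normalised scans of fluorescent anti-GST signal were the basis for scoring. That signal came from GST-tagged yeast transcription factors applied at about 100-200 nM to double-stranded universal all-10-mer Agilent arrays on fresh or once-stripped slides. Each ungapped eight-base word, pooled with its reverse complement, received an E-score from the Universal PBM Analysis Suite.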
row,Sequence,PBM E-score
1,AAAGACCT,0.0725
2,AGTAGCCA,-0.186
3,ATTTTCTC,-0.0167
4,CATGCTGC,-0.134
5,CTGATAGA,0.0701
6,TTATTAAA,0.29
7,CTCATGCA,0.0112
8,GGCATGCC,0.121
9,GTCGACTA,0.147
10,CTTGCTCC,-0.027
11,GGTTCTAC,-0.139
12,CTCTATCC,-0.094
13,GCTCAAAA,0.129
14,AATTCAAG,0.087
15,ACTTGGGA,-0.131
16,ATAAGATG,0.177
17,ATACCACC,-0.0113
18,CATGCTAG,0.0327
19,CATATGTC,0.449
20,TGCAACAA,0.00155
21,GGCTCACC,-0.297
22,GTATTAGA,0.183

row,Sequence,PBM E-score
1,GCGGAGCC,-0.139
2,CGGTGGTC,-0.178
3,ACATTCAT,0.219
4,AGCCAGGA,-0.0467
5,CACTCTAC,0.0849
6,ACCAGCAG,-0.229
7,TCAAACCA,0.0273
8,ATCGGGCA,0.0319
9,CTAGCGAA,-0.166
10,AGATGAAA,0.0281
11,GGCGAGCC,-0.0805
12,CGGTAACG,-0.0583
13,CGGCCTAA,0.0911
14,CAGACGCA,-0.157
15,CATCGATC,0.0582
16,GATGGGAA,-0.263
17,CCCCAACA,-0.258
18,CCTGAAGG,-0.23
19,GCACAAAC,0.0596
20,CGCCCCGA,-0.116
21,AGGTTAAG,-0.0722
22,AGTGCCGC,-0.00434

row,Sequence,PBM E-score
1,ACCTACGA,0.0388
2,CCAGTCGC,-0.182
3,CACTGATA,0.00625
4,CCTCAGAA,-0.0736
5,CAGGCCTA,0.0635
6,CGTAAGGA,-0.0491
7,GTGACGTA,0.0544
8,AGAGTTCG,0.068
9,AGTTCCAG,-0.0913
10,CCTCTCCC,-0.186
11,ATCGATGA,0.148
12,ATCTCCAG,-0.0877
13,AAAGCACC,-0.171
14,CGTATGAG,0.0013
15,ATCTGTGA,0.0317
16,CGCTTCCC,-0.207
17,AAAATCTG,0.182
18,TAGTAGCA,-0.0287
19,CCGCGGCA,0.0871
20,AGCTTGAG,-0.24
21,CAACCATG,0.0589
22,GTGGCTCA,-0.0852

row,Sequence,PBM E-score
1,TAATGCTA,0.146
2,ACAGTCCA,0.00446
3,CAAGTCAA,-0.149
4,ACAAGAGG,-0.011
5,GGTTCCTA,-0.0173
6,GATGGGCA,0.00952
7,GAGTTGCA,0.0203
8,CTCGAATA,-0.0344
9,CCGCACAA,-0.146
10,ATGCACCG,-0.211
11,AAAGAATT,0.147
12,AATCGTAG,0.11
13,CGTCCCAC,0.0126
14,ACACGCGC,0.173
15,CTAAGGCA,-0.022
16,AAGGTAGA,-0.136
17,AGATTTAA,0.0502
18,CTGCCCAA,-0.0276
19,CACAGGTG,-0.148
20,GTTGACAA,0.269

# Source: the supplement of paper PMC3334620
